# The supplement of paper PMC4967469
# IC50 is the fitted dose that halves viability relative to control wells, and lower means more sensitive; fits outside the tested doses are given as limits. AUC sums up the same curve from the lowest dose to the 256-fold higher top dose: 1 means no effect, lower means more sensitive.
# Compound: NC1(c2ccc(-c3nc4ccn5c(=O)[nH]nc5c4cc3-c3ccccc3)cc2)CCC1 [MK-2206]
# Assay: Viability of human cancer cell lines after 72 h of drug (GDSC screen)
# Description: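 Human cancer cell lines in 384-well plates, medium with 10% serum, drug for 72 h over a 256-fold dose range (nine 2-fold or five 4-fold steps up to the top dose). Adherent lines were fixed and stained with the nucleic acid dye Syto60, suspension lines read with resazurin; signal relative to control wells, capped at 0 and 100%. One two-parameter sigmoid per drug and line, fitted in a mixed model over all curves with the slope shared within a line.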
Cell Line,AUC,IC50 [µM]
"HT55 (large intestine, adherent, top dose 4 µM)",0.949,> 4
"LOU-NH91 (lung squamous cell carcinoma, adherent, top dose 4 µM)",0.751,1.42
"MONO-MAC-6 (acute myeloid leukaemia, suspension, top dose 4 µM)",0.714,1.05
"FADU (head and neck, adherent, top dose 4 µM)",0.917,> 4
"SKG-IIIa (cervix, adherent, top dose 4 µM)",0.832,3.88
"KYAE-1 (oesophagus, suspension, top dose 4 µM)",0.593,0.464
"HARA (lung squamous cell carcinoma, adherent, top dose 4 µM)",0.749,1.49
"K2 (melanoma, adherent, top dose 4 µM)",0.913,> 4
"A549 (lung adenocarcinoma, adherent, top dose 4 µM)",0.756,1.52
"A2780 (ovary, semi-adherent, top dose 4 µM)",0.974,> 4
"RCC10RGB (kidney, adherent, top dose 4 µM)",0.928,> 4
"NCI-H630 (large intestine, adherent, top dose 4 µM)",0.988,> 4
"PC-14 (lung adenocarcinoma, adherent, top dose 4 µM)",0.952,> 4
"PANC-10-05 (pancreas, adherent, top dose 2 µM)",0.953,> 2
"EGI-1 (biliary tract, adherent, top dose 2 µM)",0.854,> 2
"ChaGo-K-1 (non-small cell lung carcinoma, adherent, top dose 4 µM)",0.934,> 4
"OCUM-1 (stomach, adherent, top dose 4 µM)",0.705,1.02
"UWB1.289 (ovary, adherent, top dose 4 µM)",0.852,> 4
"EW-18 (Ewing sarcoma, suspension, top dose 4 µM)",0.658,0.71
"EMC-BAC-1 (lung adenocarcinoma, adherent, top dose 4 µM)",0.886,> 4

Cell Line,AUC,IC50 [µM]
"EC-GI-10 (oesophagus, adherent, top dose 4 µM)",0.715,1.01
"MHH-CALL-2 (B-cell leukaemia, suspension, top dose 4 µM)",0.996,> 4
"CS1 (bone, adherent, top dose 4 µM)",0.81,2.4
"GRANTA-519 (B-cell lymphoma, suspension, top dose 4 µM)",0.963,> 4
"LB647-SCLC (small cell lung carcinoma, semi-adherent, top dose 4 µM)",0.843,3.34
"A498 (kidney, adherent, top dose 4 µM)",0.877,> 4
"NCI-H596 (lung adenocarcinoma, adherent, top dose 4 µM)",0.961,> 4
"HCC-78 (lung adenocarcinoma, adherent, top dose 4 µM)",0.871,> 4
"LS-180 (large intestine, adherent, top dose 4 µM)",0.903,> 4
"MOLT-4 (lymphoblastic leukaemia, suspension, top dose 4 µM)",0.524,0.286
"NB-4 (acute myeloid leukaemia, suspension, top dose 4 µM)",0.959,> 4
"HDLM-2 (Hodgkin lymphoma, suspension, top dose 4 µM)",0.951,> 4
"HT-1197 (bladder, adherent, top dose 4 µM)",0.935,> 4
"SW620 (large intestine, adherent, top dose 4 µM)",0.986,> 4
"L-540 (Hodgkin lymphoma, suspension, top dose 4 µM)",0.933,> 4
"RPMI-8402 (T-cell lymphoblastic leukaemia, suspension, top dose 4 µM)",0.679,0.72
"JSC-1 (B-cell lymphoma, suspension, top dose 4 µM)",0.96,> 4
"NB12 (neuroblastoma, adherent, top dose 4 µM)",0.843,> 4
"NCI-H650 (lung adenocarcinoma, adherent, top dose 4 µM)",0.985,> 4
"NCI-H209 (small cell lung carcinoma, suspension, top dose 4 µM)",0.975,> 4

Cell Line,AUC,IC50 [µM]
"KU-19-19 (bladder, adherent, top dose 4 µM)",0.908,> 4
"A3-KAW (B-cell lymphoma, suspension, top dose 4 µM)",0.992,> 4
"KE-37 (lymphoblastic leukaemia, suspension, top dose 4 µM)",0.456,0.195
"SK-N-FI (neuroblastoma, adherent, top dose 4 µM)",0.93,> 4
"HL-60 (acute myeloid leukaemia, suspension, top dose 4 µM)",0.832,2.19
"SNU-C2B (large intestine, adherent, top dose 4 µM)",0.923,> 4
"EVSA-T (breast, adherent, top dose 4 µM)",0.37,0.116
"OS-RC-2 (kidney, adherent, top dose 4 µM)",0.721,1.43
"JM1 (B-cell lymphoma, suspension, top dose 4 µM)",0.904,> 4
"HCC1500 (breast, adherent, top dose 4 µM)",0.988,> 4
"JAR (urogenital system, adherent, top dose 4 µM)",0.967,> 4
"NCI-H3122 (lung adenocarcinoma, adherent, top dose 4 µM)",0.87,3.91
"NCI-H1688 (small cell lung carcinoma, adherent, top dose 4 µM)",0.904,> 4
"HSC-39 (stomach, suspension, top dose 4 µM)",0.794,1.57
"NCI-H1105 (small cell lung carcinoma, suspension, top dose 4 µM)",0.933,> 4
"P32-ISH (Burkitt lymphoma, suspension, top dose 4 µM)",0.835,1.76
"SCC90 (head and neck, adherent, top dose 4 µM)",0.844,> 4
"KYSE-50 (oesophagus, adherent, top dose 4 µM)",0.986,> 4
"HuCCT1 (biliary tract, adherent, top dose 4 µM)",0.98,> 4
